{
  "source": "IntAct's records for PubMed 11937501",
  "parents": {"B1": {"name": "Glutamate receptor ionotropic, NMDA 2B (Homo sapiens), Q13224 (parent)", "chain": "MKPRAECCSPKFWLVLAVLAVSGSRARSQKSPPSIGIAVILVGTSDEVAIKDAHEKDDFHHLSVVPRVELVAMNETDPKSIITRICDLMSDRKIQGVVFADDTDQEAIAQILDFISAQTLTPILGIHGGSSMIMADKDESSMFFQFGPSIEQQASVMLNIMEEYDWYIFSIVTTYFPGYQDFVNKIRSTIENSFVGWELEEVLLLDMSLDDGDSKIQNQLKKLQSPIILLYCTKEEATYIFEVANSVGLTGYGYTWIVPSLVAGDTDTVPAEFPTGLISVSYDEWDYGLPARVRDGIAIITTAASDMLSEHSFIPEPKSSCYNTHEKRIYQSNMLNRYLINVTFEGRNLSFSEDGYQMHPKLVIILLNKERKWERVGKWKDKSLQMKYYVWPRMCPETEEQEDDHLSIVTLEEAPFVIVESVDPLSGTCMRNTVPCQKRIVTENKTDEEPGYIKKCCKGFCIDILKKISKSVKFTYDLYLVTNGKHGKKINGTWNGMIGEVVMKRAYMAVGSLTINEERSEVVDFSVPFIETGISVMVSRSNGTVSPSAFLEPFSADVWVMMFVMLLIVSAVAVFVFEYFSPVGYNRCLADGREPGGPSFTIGKAIWLLWGLVFNNSVPVQNPKGTTSKIMVSVWAFFAVIFLASYTANLAAFMIQEEYVDQVSGLSDKKFQRPNDFSPPFRFGTVPNGSTERNIRNNYAEMHAYMGKFNQRGVDDALLSLKTGKLDAFIYDAAVLNYMAGRDEGCKLVTIGSGKVFASTGYGIAIQKDSGWKRQVDLAILQLFGDGEMEELEALWLTGICHNEKNEVMSSQLDIDNMAGVFYMLGAAMALSLITFICEHLFYWQFRHCFMGVCSGKPGMVFSISRGIYSCIHGVAIEERQSVMNSPTATMNNTHSNILRLLRTAKNMANLSGVNGSPQSALDFIRRESSVYDISEHRRSFTHSDCKSYNNPPCEENLFSDYISEVERTFGNLQLKDSNVYQDHYHHHHRPHSIGSASSIDGLYDCDNPPFTTQSRSISKKPLDIGLPSSKHSQLSDLYGKFSFKSDRYSGHDDLIRSDVSDISTHTVTYGNIEGNAAKRRKQQYKDSLKKRPASAKSRREFDEIELAYRRRPPRSPDHKRYFRDKEGLRDFYLDQFRTKENSPHWEHVDLTDIYKERSDDFKRDSVSGGGPCTNRSHIKHGTGDKHGVVSGVPAPWEKNLTNVEWEDRSGGNFCRSCPSKLHNYSTTVTGQNSGRQACIRCEACKKAGNLYDISEDNSLQELDQPAAPVAVTSNASTTKYPQSPTNSKAQKKNRNKLRRQHSYDTFVDLQKEEAALAPRSVSLKDKGRFMDGSPYAHMFEMSAGESTFANNKSSVPTAGHHHHNNPGGGYMLSKSLYPDRVTQNPFIPTFGDDQCLLHGSKSYFFRQPTVAGASKARPDFRALVTNKPVVSALHGAVPARFQKDICIGNQSNPCVPNNKNPRAFNGSSNGHVYEKLSSIESDV", "partner": "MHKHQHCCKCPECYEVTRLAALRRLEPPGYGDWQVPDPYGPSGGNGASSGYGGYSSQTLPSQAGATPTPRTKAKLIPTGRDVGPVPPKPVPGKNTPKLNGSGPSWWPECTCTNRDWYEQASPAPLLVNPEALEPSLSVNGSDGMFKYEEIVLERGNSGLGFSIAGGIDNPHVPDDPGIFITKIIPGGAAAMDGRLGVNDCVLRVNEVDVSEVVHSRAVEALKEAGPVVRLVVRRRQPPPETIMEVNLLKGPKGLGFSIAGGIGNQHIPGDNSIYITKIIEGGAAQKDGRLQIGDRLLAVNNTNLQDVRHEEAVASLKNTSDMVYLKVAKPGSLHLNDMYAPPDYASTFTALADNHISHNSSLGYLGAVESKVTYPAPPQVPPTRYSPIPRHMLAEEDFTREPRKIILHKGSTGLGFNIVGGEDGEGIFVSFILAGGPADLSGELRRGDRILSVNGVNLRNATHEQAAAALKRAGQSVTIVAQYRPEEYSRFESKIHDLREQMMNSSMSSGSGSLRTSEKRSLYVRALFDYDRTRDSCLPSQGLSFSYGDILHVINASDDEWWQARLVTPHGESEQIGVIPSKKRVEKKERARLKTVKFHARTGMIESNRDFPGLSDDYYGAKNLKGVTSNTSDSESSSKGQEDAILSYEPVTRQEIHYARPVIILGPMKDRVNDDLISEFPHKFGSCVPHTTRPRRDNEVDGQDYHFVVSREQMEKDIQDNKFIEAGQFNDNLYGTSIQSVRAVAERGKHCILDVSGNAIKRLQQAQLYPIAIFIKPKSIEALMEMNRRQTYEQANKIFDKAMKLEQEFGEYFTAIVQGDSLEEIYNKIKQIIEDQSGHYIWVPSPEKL"}},
  "data": [
    {"variants_of": "B1", "conditions": "with dlg3_rat Dlg3, Q62936", "values": [
      {"variant": "S1482A", "effect of a mutation on the interaction": "disrupting interaction"},
      {"variant": "V1484A", "effect of a mutation on the interaction": "disrupting interaction"}
    ]}
  ]
}
